Compound in the assay: CC1Cc2ccccc2N1C(=O)C1CCCN(C1)C(=O)CCl (mixture of isomers) [TRIM25 ligand 11 (diastereomer mixture)]
The assay can be described thus: probe-labelled cysteine peptide fold change vs DMSO (competition) (log2 fold change); higher = less target engagement (more negative = stronger competition). The following applies: THP-1, incubation time: 4 h.

The full data set covers some 21,000 targets. This sample favours those with the largest changes.
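Note: competitive chemoproteomic profiling in live THP-1 cells with an iodoacetamide desthiobiotin (IA-DTB) probe, comparing probe-labelled peptide intensities in compound-treated cells against DMSO-treated controls.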

For “PSMA6_P60900_161_CDPAGYYCGFK (UniProt P60900)”, the “probe-labelled cysteine peptide fold change” value by setting is: (10 µM) 0.145; (50 µM) 0.14.
Regarding “RBM17_Q96I25_339_CVIFEIPGAPDDEAVR (UniProt Q96I25)”, the “probe-labelled cysteine peptide fold change” value was -0.0382 (10 µM) and 0.0679 (50 µM).
With RBM47_A0AV96_71_GCEVFVGK, the “probe-labelled cysteine peptide fold change” value is -0.0661 (10 µM) and 0.127 (50 µM).
For “PYCARD_Q9ULZ3_173_LFSFTPAWNWTCK (UniProt Q9ULZ3)”, in that order: -0.0339 and -0.0628.
The like results for “PTGS2_P35354_299_EHNRVCDVLK (UniProt P35354)” were, in that order, -0.468 and -0.683.
The like results for “RNF213_Q63HN8_3008_CSEEVSPMQLIK (UniProt Q63HN8)” were, in that order, -0.0475 and -0.255.
Turning to “RNH1_P13489_199_DSPCQLEALKLESCGVTSDNCR (UniProt P13489)”, the “probe-labelled cysteine peptide fold change” value (10 µM) was -0.776 and the “probe-labelled cysteine peptide fold change” value (50 µM) was -0.389.
The like results for “QPRT_Q15274_96_GPAHCLLLGER (UniProt Q15274)” were, in that order, -0.0381 and -0.00739.
With “RAD50_Q92878_990_VIAQLSECEK (UniProt Q92878)”, the “probe-labelled cysteine peptide fold change” value reads like this: (10 µM) -0.0639; (50 µM) 0.0539.
The like results for “PSMB10_P40306_83_IYCCGAGVAADAEMTTR (UniProt P40306)” were, in that order, -0.122 and -0.141.
For “PYGL_P06737_496_WLLLCNPGLAELIAEK (UniProt P06737)”, in that order: 0.163 and 0.0845.
For “RMND5A_Q9H871_25_FSGYGQLCER (UniProt Q9H871)”, in that order: -0.0161 and -0.0553.
Regarding “RBM23_Q86U06_215_GIAYVEFCEIQSVPLAIGLTGQR (UniProt Q86U06)”, the “probe-labelled cysteine peptide fold change” value reads like this: (10 µM) -0.0573; (50 µM) -0.975.
On to “RLF_Q13129_1383_HCSDSHNLDHIEEPK (UniProt Q13129)”, for which the “probe-labelled cysteine peptide fold change” value (10 µM) came out at 0.194 and the “probe-labelled cysteine peptide fold change” value (50 µM) was -0.382.
For “QSOX1_O00391_449_GYVHYFFGCR (UniProt O00391)”, in that order: 0.0307 and 0.255.
As to “RIC8A_Q9NPQ8_79_DRNCLDPFTSR (UniProt Q9NPQ8)”, the “probe-labelled cysteine peptide fold change” value was 0.00403 (10 µM) and -0.00993 (50 µM).
For “RABEP1_Q15276_734_ENLEETLQLEIENCK (UniProt Q15276)”, in that order: -0.00626 and -0.0663.
The like results for “PSMD1_Q99460_571_MEEADALIESLCR (UniProt Q99460)” were, in that order, 0.00582 and 0.124.
Turning to “RECQL_P46063_471_RVLMAQHFDEVWNSEACNK (UniProt P46063)”, the “probe-labelled cysteine peptide fold change” value by setting is: (10 µM) 0.125; (50 µM) 0.0736.
On to “RAB7A_P51149_143_AQAWCYSK (UniProt P51149)”, for which the “probe-labelled cysteine peptide fold change” value by setting is: (10 µM) 0.0123; (50 µM) -0.105.
The like results for “RBL1_P28749_439_GIGETFCQHYTQSTDEQPGSHIDFAVNR (UniProt P28749)” were, in that order, 0.154 and 0.0553.
Turning to “RECQL_P46063_224_IAVDEVHCCSQWGHDFRPDYK (UniProt P46063)”, the “probe-labelled cysteine peptide fold change” value reads like this: (10 µM) 0.106; (50 µM) -0.0269.

The values above are taken from the supplement of paper PMC12067093, “Discovery and optimisation of a covalent ligand for TRIM25 and its application to targeted protein ubiquitination” (Chemical Science, 2025).
